Some of the results follow.

In publication PMC7819943, “Rice protein-binding microarrays: a tool to detect cis-acting elements near promoter regions in rice” one finds binding signal data, which are given here for 42 sequences.

For this experiment, the target named is T1, OsWOX13 (Oryza sativa, UniProt Q5QMM3 1-267).
T1 sequence: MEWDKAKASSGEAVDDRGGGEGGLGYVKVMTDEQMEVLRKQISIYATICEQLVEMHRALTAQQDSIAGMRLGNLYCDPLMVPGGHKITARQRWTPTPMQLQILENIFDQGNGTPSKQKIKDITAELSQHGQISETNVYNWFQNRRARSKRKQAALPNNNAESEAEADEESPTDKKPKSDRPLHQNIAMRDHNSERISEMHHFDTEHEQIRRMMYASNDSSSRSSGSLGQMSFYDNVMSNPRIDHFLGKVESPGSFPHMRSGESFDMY
In words: protein-binding microarray (RPBM); PBS, 2% BSA, 51.3 ng/ul salmon testes DNA, 50 uM zinc acetate, 200 nM TF, 25 C, 1 h; high values mean tight binding. The following applies: protein: recombinant; tags: N-terminal polyhistidine and DsRed monomer fusion (pET32a); label: CyDye5-dUTP incorporated in the synthesized complementary strand; 3' TTTTT single-stranded linker to array surface; dsDNA, one strand shown. The gist of the method: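 Binding signal here means per-feature fluorescence intensity in arbitrary units. The values were read on an Axon 4000B scanner after a custom Agilent array, double-stranded by primer extension with Cy5-dUTP, was incubated with 200 nM protein at 25 °C for 1 h in PBS with 2% BSA, salmon testes DNA and 50 µM zinc acetate, then washed. The proteins were transcription factors with an N-terminal polyhistidine tag and DsRed, expressed in E. coli BL21-CodonPlus and purified on Ni–NTA.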
Regarding “GAAAGGATCTGTACTAGTGATTGGAAAATCCGTCATAGGGCGGAGTCACCTAGTGCAG”, the binding signal is 6480 fluorescence intensity (a.u.).

Regarding “TCTAAACATATCCAGATAAATTATTCTGAGATGAGTCTCACGGAGTCACCTAGTGCAG”, the binding signal was 3670 fluorescence intensity (a.u.).

“GGTTGATAACCATGATAATTGAGCTGTTGCCGTCGCATTTCGGAGTCACCTAGTGCAG”: the binding signal is 14600 fluorescence intensity (a.u.).

Take “AGTGATGTATATTGATCTTTGAATAAGCTGGTAGACGAATCGGAGTCACCTAGTGCAG”: the binding signal was 4060 fluorescence intensity (a.u.).

As for “CCCTATCAGATTTGACAGAAAATTTACTTATAATTTCAGTCGGAGTCACCTAGTGCAG”, the binding signal is 14700 fluorescence intensity (a.u.).

“TATTCTCACCATCTAATTGATTGGAGGTAACCATATTCAACGGAGTCACCTAGTGCAG”: the binding signal is 23100 fluorescence intensity (a.u.).

“CTAGATTTATGGGTGATGTGTGATTAGGACTGCAGGATTACGGAGTCACCTAGTGCAG”: the binding signal is 34000 fluorescence intensity (a.u.).

For the sequence “CCTTCATTAACATGATTATGGTTCATGCCAAATGCTTAGTCGGAGTCACCTAGTGCAG”, the binding signal is 26900 fluorescence intensity (a.u.).

Consider “GTTAATTAAACTCAATATAAAGATGAGGAACGGCAAGTGACGGAGTCACCTAGTGCAG”, for which the binding signal is 24800 fluorescence intensity (a.u.).

Consider “ACGCTTCTTAAATTTATAAATGGTGTCCTTCATACATAACCGGAGTCACCTAGTGCAG”, for which the binding signal is 4270 fluorescence intensity (a.u.).

“GATCGAATTGGTAAATCAAATGTCTCTAAATTCTCTCCATCGGAGTCACCTAGTGCAG”: the binding signal was 4550 fluorescence intensity (a.u.).

As to “ATTTTAATTACATTGTTGTTACACTATAATTACACCATAGCGGAGTCACCTAGTGCAG”, the binding signal was 27100 fluorescence intensity (a.u.).

For “TTTCCTAATTTATATAGTACTCCTATCTCGTCAGCTGCTTCGGAGTCACCTAGTGCAG”, the binding signal was 7930 fluorescence intensity (a.u.).

For “AAATTTGATTTCATAATTTCTAAATCTTGTATAAATGAAGCGGAGTCACCTAGTGCAG”, the binding signal was 15700 fluorescence intensity (a.u.).

“CTGATTAACTTGCGTGTTGCACTATCGATAGATGAGAGCACGGAGTCACCTAGTGCAG”: the binding signal was 14100 fluorescence intensity (a.u.).

For the sequence “TGATGGATTGCCATCCTGATTAAGATTTCCTCCTAAAGAGCGGAGTCACCTAGTGCAG”, the binding signal was 13800 fluorescence intensity (a.u.).

As to “CGCTAATATTAAACTGAGGAATGTAGAGTCATCAGGTTTACGGAGTCACCTAGTGCAG”, the binding signal is 3620 fluorescence intensity (a.u.).

For the sequence “CGACTCCAAATTAAATTTCATGAAATTTCAAAGAATGGCACGGAGTCACCTAGTGCAG”, the binding signal was 8500 fluorescence intensity (a.u.).

“GGTTGGACTGGCAAATTAAAGCCACAGTGACATGACCTGACGGAGTCACCTAGTGCAG”: the binding signal is 5930 fluorescence intensity (a.u.).

On to “TTCTGGAATATTGGAAATTGATTAATAACGGAAAGGAATACGGAGTCACCTAGTGCAG”, for which the binding signal is 9420 fluorescence intensity (a.u.).

With “TAAAATTGATGTCATTAGATTTATCATTCAACAAGCTATCCGGAGTCACCTAGTGCAG”, the binding signal was 27000 fluorescence intensity (a.u.).

In the case of “CGAAGATTGATCGGATTTGAGGTCCCGCTTGAATCAGTTGCGGAGTCACCTAGTGCAG”, the binding signal was 35000 fluorescence intensity (a.u.).

In the case of “AAAATTATGGTAATTCAAAGTTAGAATGATAAATATTGTGCGGAGTCACCTAGTGCAG”, the binding signal was 7040 fluorescence intensity (a.u.).

“TCAAATTAAACTAGGTGAATATTATTGTTATGCATATAGGCGGAGTCACCTAGTGCAG”: the binding signal was 11400 fluorescence intensity (a.u.).

As to “CTGAAACTAAAGGCTTTGATTGATTTTCTAATCAATTGATCGGAGTCACCTAGTGCAG”, the binding signal is 25200 fluorescence intensity (a.u.).

On to “GACTAATTATGCTTAATAAATTCATCTCACAGTTTACATGCGGAGTCACCTAGTGCAG”, for which the binding signal was 32600 fluorescence intensity (a.u.).

With “ATCTAATTTGCACCGGTTTTGATAGTTGAGGGACCCGTTGCGGAGTCACCTAGTGCAG”, the binding signal is 25400 fluorescence intensity (a.u.).

In the case of “AAGGTAAATTAGAAGGGGATATTTGTAATAAATTAGTTTACGGAGTCACCTAGTGCAG”, the binding signal is 10000 fluorescence intensity (a.u.).

For the sequence “GGTATTCAATTTGGATTGATGGGAAACTTAAACTAGTGAGCGGAGTCACCTAGTGCAG”, the binding signal was 18900 fluorescence intensity (a.u.).

With “ACCTAAATTGCCCTTTGGTTATGAGAACTTCGAGAAGACGCGGAGTCACCTAGTGCAG”, the binding signal was 20200 fluorescence intensity (a.u.).

Turning to “TACCTGTGACGGGCAATCGAAATGGTCACTGATGACCGTCCGGAGTCACCTAGTGCAG”, the binding signal is 3320 fluorescence intensity (a.u.).

For “CTAATCTTGATTATTTCCATGTACTGTAGTATTGTACTGACGGAGTCACCTAGTGCAG”, the binding signal was 7540 fluorescence intensity (a.u.).

On to “ATATCGATCTCTCTTAATTAATTTCCCATCCAATCCAGTGCGGAGTCACCTAGTGCAG”, for which the binding signal is 5100 fluorescence intensity (a.u.).

Consider “GGTGATGACATGCATCACCCACAATGACAACGAGCACTGCCGGAGTCACCTAGTGCAG”, for which the binding signal is 5000 fluorescence intensity (a.u.).

“GTACTAAAACCTCATTAATTGATCAAGGCAGCGAGTAGCCCGGAGTCACCTAGTGCAG”: the binding signal is 13200 fluorescence intensity (a.u.).

Regarding “ATTATATTAGAACAAATTAACATCCAAGAATCACTTTGTACGGAGTCACCTAGTGCAG”, the binding signal is 4540 fluorescence intensity (a.u.).

Take “ACTAATTGATCATCGTGATCGTCATCATCTTCATTTGTCTCGGAGTCACCTAGTGCAG”: the binding signal is 39200 fluorescence intensity (a.u.).

On to “TTGGATTTGAATAATTGGGAATCATCACAGTCCGTATGCACGGAGTCACCTAGTGCAG”, for which the binding signal is 31900 fluorescence intensity (a.u.).

Turning to “AAGCCTAATTAATCCGTCATTAGCAAATATTTACTGTAGCCGGAGTCACCTAGTGCAG”, the binding signal is 27800 fluorescence intensity (a.u.).

For the sequence “AGTATATTTAATAATGAATTAAATGATAGGAATAGTTACTCGGAGTCACCTAGTGCAG”, the binding signal is 6740 fluorescence intensity (a.u.).

Consider “ATATTGATTGATTGGTTATTCGCAAGAAACATGACTGTTCCGGAGTCACCTAGTGCAG”, for which the binding signal is 63800 fluorescence intensity (a.u.).

Regarding “TTTTATTGAGTTTATGCCTGTCAATTTTCAACCAAATTCACGGAGTCACCTAGTGCAG”, the binding signal was 4650 fluorescence intensity (a.u.).
